{
  "source": "paper PMC12820563",
  "note": "This is one part of the list. The list includes weakly bound sequences.",
  "data": [
    {"biological_target": "T1, MBP-FoxP3dN (UniProt Q99JB6)", "T1 sequence": "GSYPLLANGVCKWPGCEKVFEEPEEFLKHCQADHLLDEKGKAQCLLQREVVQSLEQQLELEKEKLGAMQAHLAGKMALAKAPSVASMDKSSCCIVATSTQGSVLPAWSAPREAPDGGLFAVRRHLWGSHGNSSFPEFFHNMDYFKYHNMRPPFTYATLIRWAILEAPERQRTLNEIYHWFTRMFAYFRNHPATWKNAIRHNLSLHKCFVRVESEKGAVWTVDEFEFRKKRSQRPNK", "test": "PD-seq (MBP pull-down with sequencing)", "settings": "20 mM Tris-HCl pH 7.5, 100 mM NaCl, 1.5 mM MgCl2, 0.4 uM protein, 0.1 uM dsDNA library, 30 min, room temperature, amylose pull-down; high values mean tight binding; double strand, one strand shown", "values": [
      {"sequence": "GATGATTGTTCTCCCAGCTGATGAATTGAGTGATTCGAGTAAACAAATTTTCCTAATCTTTCTGTTCAAGCGCCATCTAC", "binding signal (RPM ratio (pull-down/input))": 1.46},
      {"sequence": "GATGATTGTTCTCCCAGCTGATGAATTTTCAACGTCGAGTAAACAAATTTTCCTAATCTTTCTGTTCAAGCGCCATCTAC", "binding signal (RPM ratio (pull-down/input))": 0.28},
      {"sequence": "GATGATTGTTCTCCCAGCTGATGAATTTCTTGGGTCGAGTAAACAAATTTTCCTAATCTTTCTGTTCAAGCGCCATCTAC", "binding signal (RPM ratio (pull-down/input))": 0.434},
      {"sequence": "GATGATTGTTCTCCCAGCTGATGAATTGTTGCACTCGAGTAAACAAATTTTCCTAATCTTTCTGTTCAAGCGCCATCTAC", "binding signal (RPM ratio (pull-down/input))": 3.78},
      {"sequence": "GATGATTGTTCTCCCAGCTGATGAATTAAGTGGCTCGAGTAAACAAATTTTCCTAATCTTTCTGTTCAAGCGCCATCTAC", "binding signal (RPM ratio (pull-down/input))": 0.629},
      {"sequence": "GATGATTGTTCTCCCAGCTGATGAATTCCACAAGTCGAGTAAACAAATTTTCCTAATCTTTCTGTTCAAGCGCCATCTAC", "binding signal (RPM ratio (pull-down/input))": 0.196},
      {"sequence": "GATGATTGTTCTCCCAGCTGATGAATTGAAAGGGTCGAGTAAACAAATTTTCCTAATCTTTCTGTTCAAGCGCCATCTAC", "binding signal (RPM ratio (pull-down/input))": 0.2},
      {"sequence": "GATGATTGTTCTCCCAGCTGATGAATTGACCAGATCGAGTAAACAAATTTTCCTAATCTTTCTGTTCAAGCGCCATCTAC", "binding signal (RPM ratio (pull-down/input))": 0.205},
      {"sequence": "GATGATTGTTCTCCCAGCTGATGAATTGATTTTATCGAGTAAACAAATTTTCCTAATCTTTCTGTTCAAGCGCCATCTAC", "binding signal (RPM ratio (pull-down/input))": 0.822},
      {"sequence": "GATGATTGTTCTCCCAGCTGATGAATTGGGACGTTCGAGTAAACAAATTTTCCTAATCTTTCTGTTCAAGCGCCATCTAC", "binding signal (RPM ratio (pull-down/input))": 0.431},
      {"sequence": "GATGATTGTTCTCCCAGCTGATGAATTAAAATAATCGAGTAAACAAATTTTCCTAATCTTTCTGTTCAAGCGCCATCTAC", "binding signal (RPM ratio (pull-down/input))": 0.425},
      {"sequence": "GATGATTGTTCTCCCAGCTGATGAATTCTACGAATCGAGTAAACAAATTTTCCTAATCTTTCTGTTCAAGCGCCATCTAC", "binding signal (RPM ratio (pull-down/input))": 0.206},
      {"sequence": "GATGATTGTTCTCCCAGCTGATGAATTCGAGACTTCGAGTAAACAAATTTTCCTAATCTTTCTGTTCAAGCGCCATCTAC", "binding signal (RPM ratio (pull-down/input))": 0.453},
      {"sequence": "GATGATTGTTCTCCCAGCTGATGAATTTCTGCATTCGAGTAAACAAATTTTCCTAATCTTTCTGTTCAAGCGCCATCTAC", "binding signal (RPM ratio (pull-down/input))": 6.35},
      {"sequence": "GATGATTGTTCTCCCAGCTGATGAATTAAGTCAGTCGAGTAAACAAATTTTCCTAATCTTTCTGTTCAAGCGCCATCTAC", "binding signal (RPM ratio (pull-down/input))": 0.332},
      {"sequence": "GATGATTGTTCTCCCAGCTGATGAATTGCTGTGGTCGAGTAAACAAATTTTCCTAATCTTTCTGTTCAAGCGCCATCTAC", "binding signal (RPM ratio (pull-down/input))": 0.868},
      {"sequence": "GATGATTGTTCTCCCAGCTGATGAATTCCCAAGATCGAGTAAACAAATTTTCCTAATCTTTCTGTTCAAGCGCCATCTAC", "binding signal (RPM ratio (pull-down/input))": 0.16},
      {"sequence": "GATGATTGTTCTCCCAGCTGATGAATTTAAGACCTCGAGTAAACAAATTTTCCTAATCTTTCTGTTCAAGCGCCATCTAC", "binding signal (RPM ratio (pull-down/input))": 0.243},
      {"sequence": "GATGATTGTTCTCCCAGCTGATGAATTAACCTCGTCGAGTAAACAAATTTTCCTAATCTTTCTGTTCAAGCGCCATCTAC", "binding signal (RPM ratio (pull-down/input))": 0.282},
      {"sequence": "GATGATTGTTCTCCCAGCTGATGAATTATGCTCCTCGAGTAAACAAATTTTCCTAATCTTTCTGTTCAAGCGCCATCTAC", "binding signal (RPM ratio (pull-down/input))": 1.25},
      {"sequence": "GATGATTGTTCTCCCAGCTGATGAATTACGTAGTTCGAGTAAACAAATTTTCCTAATCTTTCTGTTCAAGCGCCATCTAC", "binding signal (RPM ratio (pull-down/input))": 0.81},
      {"sequence": "GATGATTGTTCTCCCAGCTGATGAATTTCCCTTATCGAGTAAACAAATTTTCCTAATCTTTCTGTTCAAGCGCCATCTAC", "binding signal (RPM ratio (pull-down/input))": 0.341},
      {"sequence": "GATGATTGTTCTCCCAGCTGATGAATTAAACAATTCGAGTAAACAAATTTTCCTAATCTTTCTGTTCAAGCGCCATCTAC", "binding signal (RPM ratio (pull-down/input))": 0.976},
      {"sequence": "GATGATTGTTCTCCCAGCTGATGAATTGATGTACTCGAGTAAACAAATTTTCCTAATCTTTCTGTTCAAGCGCCATCTAC", "binding signal (RPM ratio (pull-down/input))": 1.82},
      {"sequence": "GATGATTGTTCTCCCAGCTGATGAATTTTGCGCGTCGAGTAAACAAATTTTCCTAATCTTTCTGTTCAAGCGCCATCTAC", "binding signal (RPM ratio (pull-down/input))": 3.39},
      {"sequence": "GATGATTGTTCTCCCAGCTGATGAATTGGCGCATTCGAGTAAACAAATTTTCCTAATCTTTCTGTTCAAGCGCCATCTAC", "binding signal (RPM ratio (pull-down/input))": 6.97},
      {"sequence": "GATGATTGTTCTCCCAGCTGATGAATTATACTACTCGAGTAAACAAATTTTCCTAATCTTTCTGTTCAAGCGCCATCTAC", "binding signal (RPM ratio (pull-down/input))": 0.526},
      {"sequence": "GATGATTGTTCTCCCAGCTGATGAATTTTTCATCTCGAGTAAACAAATTTTCCTAATCTTTCTGTTCAAGCGCCATCTAC", "binding signal (RPM ratio (pull-down/input))": 0.246},
      {"sequence": "GATGATTGTTCTCCCAGCTGATGAATTTGAGACATCGAGTAAACAAATTTTCCTAATCTTTCTGTTCAAGCGCCATCTAC", "binding signal (RPM ratio (pull-down/input))": 0.505},
      {"sequence": "GATGATTGTTCTCCCAGCTGATGAATTCAGATACTCGAGTAAACAAATTTTCCTAATCTTTCTGTTCAAGCGCCATCTAC", "binding signal (RPM ratio (pull-down/input))": 0.696},
      {"sequence": "GATGATTGTTCTCCCAGCTGATGAATTGCATGATTCGAGTAAACAAATTTTCCTAATCTTTCTGTTCAAGCGCCATCTAC", "binding signal (RPM ratio (pull-down/input))": 1.35},
      {"sequence": "GATGATTGTTCTCCCAGCTGATGAATTCTTAGAGTCGAGTAAACAAATTTTCCTAATCTTTCTGTTCAAGCGCCATCTAC", "binding signal (RPM ratio (pull-down/input))": 0.2},
      {"sequence": "GATGATTGTTCTCCCAGCTGATGAATTGTCGAATTCGAGTAAACAAATTTTCCTAATCTTTCTGTTCAAGCGCCATCTAC", "binding signal (RPM ratio (pull-down/input))": 0.855},
      {"sequence": "GATGATTGTTCTCCCAGCTGATGAATTTACGGGATCGAGTAAACAAATTTTCCTAATCTTTCTGTTCAAGCGCCATCTAC", "binding signal (RPM ratio (pull-down/input))": 0.363},
      {"sequence": "GATGATTGTTCTCCCAGCTGATGAATTCCGACTTTCGAGTAAACAAATTTTCCTAATCTTTCTGTTCAAGCGCCATCTAC", "binding signal (RPM ratio (pull-down/input))": 1.41},
      {"sequence": "GATGATTGTTCTCCCAGCTGATGAATTTGCAGTTTCGAGTAAACAAATTTTCCTAATCTTTCTGTTCAAGCGCCATCTAC", "binding signal (RPM ratio (pull-down/input))": 1.19},
      {"sequence": "GATGATTGTTCTCCCAGCTGATGAATTCTGCCTATCGAGTAAACAAATTTTCCTAATCTTTCTGTTCAAGCGCCATCTAC", "binding signal (RPM ratio (pull-down/input))": 2.42},
      {"sequence": "GATGATTGTTCTCCCAGCTGATGAATTGTTAATATCGAGTAAACAAATTTTCCTAATCTTTCTGTTCAAGCGCCATCTAC", "binding signal (RPM ratio (pull-down/input))": 0.901},
      {"sequence": "GATGATTGTTCTCCCAGCTGATGAATTCAACGGGTCGAGTAAACAAATTTTCCTAATCTTTCTGTTCAAGCGCCATCTAC", "binding signal (RPM ratio (pull-down/input))": 0.24},
      {"sequence": "GATGATTGTTCTCCCAGCTGATGAATTCCATACATCGAGTAAACAAATTTTCCTAATCTTTCTGTTCAAGCGCCATCTAC", "binding signal (RPM ratio (pull-down/input))": 0.474}
    ]}
  ]
}
